According to the RNAGym collection of RNA variant scans (doi:10.7554/elife.90254):
The source gives no read counts; variants with many changes may rest on few reads.

B1: LINE1-mini (parent)
chain: GGCAGAGCUCAACACAGCGUGGCAAAGUGGCUGUGGCUAGACUGCC

Variants of: B1
Assay: self-cleavage, relative activity (ratio to wild type); higher = more cleavage; in vitro, sequencing; the parent is a self-cleaving ribozyme

Row | Variant | self-cleavage
1 | G17A C31U G44A | 0.02
2 | C18G A24C C37G | 0.02
3 | G1A G19C C46U | 2.64
4 | G7C G19U A24C A25G | 0.06
5 | C13A U20A U38C A39U | 0.04
6 | C10G C15A U20G U34C G44C | 0
7 | G2C A6U C10A A16G G40A G44U | 0.02
8 | A4U U32A G33U A39C | 0.06
9 | A11U A25G G36U C46U | 0.01
10 | C3G A6C A26G G36U A41U | 0.03
11 | C3U G5A C31A A41G | 0.03
12 | A16C C18A U20G A24G G29A | 0.06
13 | G2U G7C A14U G17A | 0.12
14 | A4U C18G G21U | 0.07
15 | G2C C18G U28A G30C C37A C45A | 0.27
16 | A4G G7A U34A A39G | 0.19
17 | G19A G21C G27U | 0.51
18 | A16G U28C G44U | 0.26
19 | G7C A11G U20C G44C | 0.01
20 | G5U U28G G33A | 0
21 | G5U G7U A12U A16C C23U G27A G29C U32C U38A | 0
22 | C10A G30U G36C A39U | 0.04
23 | C18A G27C G30C C31G | 0.07
24 | A25U U43C C46A | 0.05

Row | Variant | self-cleavage
25 | A11U G27A G29U G35U | 0.01
26 | G5U A16U U38A A39G | 0.03
27 | C3U A12U G21C G29C | 0.19
28 | G2C C10A G22A G33A | 0.01
29 | G1U G19C U20G A24U G33U | 0.02
30 | G1C A11G G30C U38G | 0
31 | G2C A4C C10U | 0.05
32 | A16C G21C G22C A25G C31G | 0.02
33 | C3A A4U G35C | 0.05
34 | C3G C10G U20G G33A | 0
35 | G5A C15U G29A G36C | 0.02
36 | C8A G19C U20C | 0.04
37 | A4G G17A C18A G19C G21A | 0.29
38 | U32G U38A A39C C46U | 0.06
39 | G1A G2A G19C C37U | 0.07
40 | C10U C31G C45A | 0.04
41 | C15G G22C C23U U28A C31U | 0.01
42 | G7U G30U G36C | 0.04
43 | G5A U20C U28C C46U | 0.05
44 | G1U G17C U28G | 0.36
45 | C15U G30C U38C A39G | 0.02
46 | G33A C37U G40U | 0.1
47 | C18U A25U A39G U43C | 0.01
48 | U20A C31G C46G | 0.03

Row | Variant | self-cleavage
49 | G1A C10G C15U G19A G33U A39U C45G | 0.05
50 | A12C C15U G27U G44A | 0.01
51 | A6G C15U G22C C23A U28G | 0.09
52 | C23A G36U C37A U38C | 0.03
53 | G35U G40A G44A | 0.06
54 | A12U G29U G30A G44U | 0.12
55 | C10A A11U A16G C37U G44U | 0
56 | G22A G33C C37U C42U | 0.05
57 | A14G C37U A39G | 0
58 | A16G G22A A24U A25G C42G | 0
59 | C8G G29U G40C C46U | 0.12
60 | A12C G33U G36U C37U C42A | 0
61 | A6C A12C C13U | 0.05
62 | G17U C18A C45U | 0.15
63 | G17U A24C G29U | 0.09
64 | G2U G7A C31A A39G C46A | 0
65 | G7U U9G C10G G44C C45G | 0.01
66 | G2C A6G C8A A41C | 1.88
67 | G1A A6C G7U | 0.2
68 | C10U C13U G21A | 0.04
69 | A11C A14G U32A C46A | 0
70 | C13G C15G A24U | 0.03
71 | A4C G7A A26G U38G | 0.11
72 | G1A C10U A16C A39C | 0.03

Row | Variant | self-cleavage
73 | C8A A16U A26U | 0.02
74 | G2A G36A A41G | 0.49
75 | U20C A26C G27U C37U | 0
76 | A4U C10A C37G | 0.01
77 | C3U G5U C31A U38A | 0.01
78 | G19A A41U U43C | 0.1
79 | C13U G19A C37U | 0.14
80 | G22C U34C U43A | 0.02
81 | C3A A12U C37G A41U U43C | 0.06
82 | G19U G30U C42U U43G C45G | 0.1
83 | A14G G30C C31G | 0.02
84 | G2A G5A C13U G30U G40U | 0.13
85 | A16C G17C G19C G22U G29C G36U | 0.05
86 | C8A A16G C23A U38A | 1.41
87 | C3G A4U A11G G40U C46A | 0.01
88 | G7U C8A G36C C37G | 0.07
89 | G5U C31A A41G | 0.07
90 | C13U G22C A24G A25G G30U | 0.03
91 | A14U G21A G40U | 0.21
92 | G5C A14U A16G G22U C23G G29U U43C C45A | 0.01
93 | U32A G36A G40U | 0.17
94 | G2U U9C C15U | 0
95 | A6C G17C A24C C46U | 0.03
96 | C15G U20G C37A U38G G40A | 0

Row | Variant | self-cleavage
97 | C13A A14U A16G | 0.03
98 | A4G G21C G27C | 0.18
99 | G19C C23U A26G G33A A39U | 0.04
100 | U28A G36A G40U | 0.18
101 | C3U G17C G19U G29C C37U | 0.1
102 | G1A A4G A14U | 0.13
103 | U34A G40U C46U | 0.04
104 | G1C A16U G17U C18G U43C | 0.03
105 | G2C G19U C31A U34A A39U | 0.01
106 | G27U G29C U43G | 0
107 | C3A C15U U34C | 0.3
108 | A6C C10G C23U | 0.05
109 | A4C U9A A16G A25C G29A | 0.36
110 | G17U A41C U43G | 0.05
111 | G5C C10A A25C G27U | 0.02
112 | C3U A14G U32A | 0.13
113 | C18U G30U G35U | 0.05
114 | A12G A26G G30A G33U U34C G35U C42G | 0
115 | A14C G27U G30A U34C G36A | 0.01
116 | G21U C42G C46U | 0.02
117 | G5U C18U G33C A41C | 0.06
118 | G1U C37U G40U | 0.08
119 | G2C G17A G30A | 0.1
120 | A4U A14G G29A G33C A41G C42A | 0.08

Row | Variant | self-cleavage
121 | G19A G40U G44A | 0.05
122 | U9C A11C C13U C23A G35U U38A G44C | 0.01
123 | A11G U20G G21U G36U | 0.02
124 | A6C C10A G30C G44C | 0.01
125 | G5C C10A G22U C31U | 0.03
126 | A14C C23U C45U | 0.08
127 | A6C A11C G35U | 0.03
128 | G33A C37G A39G | 0.03
129 | A11G U28G G30U | 0.07
130 | G1U C23G U34G C46A | 0.29
131 | G7A G22C C42U C46U | 0.47
132 | C10U A11G U38G | 0.04
133 | G2U U9G G21C A24G A25C G30C A39U | 0.01
134 | C13U G21A G35U | 0.1
135 | G5U C10A A11G G40C | 0.01
136 | A12G C13A C31G | 0.03
137 | C15G G29A C37U | 0.04
138 | G1C G5C A6U A41G | 0.03
139 | C3U G27A U34C | 0.11
140 | C15G G29A A39U | 0.12
141 | U20G U32G G36A G44C C45G | 0.03
142 | G36A C42G U43C | 0.02
143 | G2A C3A G40U | 0.17
144 | G2A G19A C37U | 0.56

Row | Variant | self-cleavage
145 | A11G C23U G44U | 0.04
146 | A25G G30C G33C | 0.01
147 | A11C C13U G21A A25U | 0.02
148 | G22A C23A U28C G40C C45A | 0.04
149 | U9G C23A A26G U43C | 0.1
150 | C3U A6C C10A | 0.02
151 | C3A U20C G27A G33U | 0.14
152 | A4C A26G G40A | 0.09
153 | C8G A16U U20A G33A | 0.04
154 | G7C A12G G27A | 0.04
155 | C3A A11G A24G C42G | 0.03
156 | G5U A26G G29U | 0.07
157 | G2A U9C A24U U32A G36U | 0.01
158 | A16U U20G C31A U32C C37A | 0.02
159 | C8U C23A G36U G40U C46U | 0.21
160 | A6C C8U G19C U28C | 0.14
161 | C3G G5U C8A A16U | 0.37
162 | G5U G17U G22A C45A | 0.03
163 | A24U G30A U34G A39C A41G | 0
164 | A11C C13U C18A G21C A25U C42A | 0.01
165 | G7U G21A A41G G44A | 0.23
166 | C10A A14U G17U G21C | 0.03
167 | C13G A26C G40A | 0.08
